According to publication PMC8894463:
Substitutions are numbered along the chain they refer to. Names may count otherwise. No constants are given. Whether binding was seen depends on the method and setting. In cells and extracts the contact can be indirect. Some entries that bind do so weakly or less than the wild type. For some assays here: Tags and fused reporters may be left off the sequences shown. One block for each molecule: values may come before it.

The chains behind the UniProt entries cited, without tags or fusion partners.
UniProt Q99836: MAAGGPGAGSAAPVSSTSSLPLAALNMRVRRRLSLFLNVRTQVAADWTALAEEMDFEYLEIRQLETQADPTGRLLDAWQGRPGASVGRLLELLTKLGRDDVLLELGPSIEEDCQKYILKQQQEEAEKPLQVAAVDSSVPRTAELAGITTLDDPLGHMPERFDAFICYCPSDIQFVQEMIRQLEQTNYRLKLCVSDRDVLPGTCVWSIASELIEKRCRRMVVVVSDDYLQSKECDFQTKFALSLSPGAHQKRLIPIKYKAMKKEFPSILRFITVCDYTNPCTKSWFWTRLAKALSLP
UniProt Q04206: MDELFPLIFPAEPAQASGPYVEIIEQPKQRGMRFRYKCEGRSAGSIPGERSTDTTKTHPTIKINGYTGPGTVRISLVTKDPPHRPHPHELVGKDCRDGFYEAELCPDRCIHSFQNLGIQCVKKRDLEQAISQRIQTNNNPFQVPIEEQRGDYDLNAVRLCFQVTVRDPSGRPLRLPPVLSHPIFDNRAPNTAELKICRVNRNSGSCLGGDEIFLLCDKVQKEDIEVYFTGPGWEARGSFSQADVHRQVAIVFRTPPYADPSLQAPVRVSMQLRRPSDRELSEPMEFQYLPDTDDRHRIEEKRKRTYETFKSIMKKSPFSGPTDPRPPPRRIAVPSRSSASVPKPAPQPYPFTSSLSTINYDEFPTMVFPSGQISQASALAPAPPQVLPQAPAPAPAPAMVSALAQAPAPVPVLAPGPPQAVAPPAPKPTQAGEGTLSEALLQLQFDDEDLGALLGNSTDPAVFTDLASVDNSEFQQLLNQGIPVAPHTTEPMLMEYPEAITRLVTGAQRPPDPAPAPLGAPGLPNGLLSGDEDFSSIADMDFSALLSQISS

Key:
[1] = biological target: T1, HA-tagged wild-type TRIM45 (tripartite motif-containing 45) (UniProt Q9H8W5); experiment: co-IP; HEK293T cells co-transfected with HA-TRIM45 and Flag-tagged partners, or with TAB2 or TRIM45 deletion mutants and the tagged partner (Fig. 3b, f, g); which protein was precipitated not given
T1 sequence: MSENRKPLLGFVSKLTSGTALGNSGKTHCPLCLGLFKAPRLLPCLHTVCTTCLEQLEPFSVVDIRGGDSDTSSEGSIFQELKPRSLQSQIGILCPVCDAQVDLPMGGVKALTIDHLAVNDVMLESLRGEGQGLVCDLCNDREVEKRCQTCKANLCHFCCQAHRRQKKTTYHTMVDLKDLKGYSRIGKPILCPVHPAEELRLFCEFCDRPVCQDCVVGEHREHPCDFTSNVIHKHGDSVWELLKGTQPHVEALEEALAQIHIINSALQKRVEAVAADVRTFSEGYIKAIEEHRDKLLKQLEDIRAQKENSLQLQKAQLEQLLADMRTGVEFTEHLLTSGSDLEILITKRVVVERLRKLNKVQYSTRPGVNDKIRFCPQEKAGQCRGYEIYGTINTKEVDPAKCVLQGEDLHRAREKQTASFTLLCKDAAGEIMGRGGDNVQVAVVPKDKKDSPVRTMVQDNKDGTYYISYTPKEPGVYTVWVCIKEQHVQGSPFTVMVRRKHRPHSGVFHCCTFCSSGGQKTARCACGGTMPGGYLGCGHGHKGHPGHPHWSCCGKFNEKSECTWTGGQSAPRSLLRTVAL

[2] = biological target: T2, TAB2 in HEK293T cells (Fig. 3d, e; construct not stated) (UniProt Q9NYJ8); experiment: co-IP; HEK293T cells with TRIM45 overexpression or TRIM45 knockdown, after OGD/R (Fig. 3d, e)
T2 sequence: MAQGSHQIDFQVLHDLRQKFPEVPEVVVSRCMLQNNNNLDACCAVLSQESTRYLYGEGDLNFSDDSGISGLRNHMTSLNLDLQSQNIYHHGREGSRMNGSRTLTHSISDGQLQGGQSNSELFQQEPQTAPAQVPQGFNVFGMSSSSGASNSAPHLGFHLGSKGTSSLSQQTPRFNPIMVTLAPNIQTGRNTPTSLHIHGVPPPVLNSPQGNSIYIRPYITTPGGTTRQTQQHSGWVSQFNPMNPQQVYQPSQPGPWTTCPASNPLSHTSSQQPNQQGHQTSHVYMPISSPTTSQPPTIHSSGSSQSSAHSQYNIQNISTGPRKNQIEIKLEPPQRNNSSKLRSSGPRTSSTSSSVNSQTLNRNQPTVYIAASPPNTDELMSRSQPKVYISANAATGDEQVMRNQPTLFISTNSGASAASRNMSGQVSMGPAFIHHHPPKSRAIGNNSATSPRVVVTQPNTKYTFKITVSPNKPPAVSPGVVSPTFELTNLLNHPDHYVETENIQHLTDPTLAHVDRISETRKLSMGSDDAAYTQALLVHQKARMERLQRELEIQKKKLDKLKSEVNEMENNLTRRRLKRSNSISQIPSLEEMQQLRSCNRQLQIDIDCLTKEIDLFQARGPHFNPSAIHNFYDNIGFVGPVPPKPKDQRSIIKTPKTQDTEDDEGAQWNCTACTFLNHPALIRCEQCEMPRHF

[3] = biological target: T3, Flag-tagged TAK1 (UniProt O43318); experiment: co-IP; HEK293T cells transfected with His-Ub, Flag-TAK1 and HA-TRIM45 together with Myc-TAB2 or K656R; IP with anti-Flag beads, then immunoblot (Fig. 5g)
T3 sequence: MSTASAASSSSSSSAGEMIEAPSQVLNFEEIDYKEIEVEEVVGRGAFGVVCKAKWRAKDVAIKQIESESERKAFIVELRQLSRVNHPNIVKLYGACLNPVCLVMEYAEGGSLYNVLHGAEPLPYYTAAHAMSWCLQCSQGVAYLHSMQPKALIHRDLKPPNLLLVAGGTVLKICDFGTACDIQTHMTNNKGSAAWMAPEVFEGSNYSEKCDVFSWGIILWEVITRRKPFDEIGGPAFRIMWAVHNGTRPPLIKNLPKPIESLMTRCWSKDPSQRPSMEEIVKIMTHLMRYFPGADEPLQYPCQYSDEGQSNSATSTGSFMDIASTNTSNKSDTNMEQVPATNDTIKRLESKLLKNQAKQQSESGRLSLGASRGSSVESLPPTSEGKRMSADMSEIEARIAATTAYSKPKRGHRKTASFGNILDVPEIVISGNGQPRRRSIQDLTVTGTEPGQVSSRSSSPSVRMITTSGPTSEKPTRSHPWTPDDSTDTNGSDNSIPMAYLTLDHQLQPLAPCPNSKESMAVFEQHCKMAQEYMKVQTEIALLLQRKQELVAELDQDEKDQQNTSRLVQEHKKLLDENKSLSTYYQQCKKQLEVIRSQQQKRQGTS

binding [1]: no binding
Molecule: Flag-tagged MyD88 (from UniProt Q99836 1-296)

binding [1]: no binding
Molecule: Flag-tagged p65 (from UniProt Q04206 1-551)

binding [2]: binds
B1: TAB1 in HEK293T cells (Fig. 3d, e; construct not stated) (protein, UniProt Q15750 1-504)
chain: MAAQRRSLLQSEQQPSWTDDLPLCHLSGVGSASNRSYSADGKGTESHPPEDSWLKFRSENNCFLYGVFNGYDGNRVTNFVAQRLSAELLLGQLNAEHAEADVRRVLLQAFDVVERSFLESIDDALAEKASLQSQLPEGVPQHQLPPQYQKILERLKTLEREISGGAMAVVAVLLNNKLYVANVGTNRALLCKSTVDGLQVTQLNVDHTTENEDELFRLSQLGLDAGKIKQVGIICGQESTRRIGDYKVKYGYTDIDLLSAAKSKPIIAEPEIHGAQPLDGVTGFLVLMSEGLYKALEAAHGPGQANQEIAAMIDTEFAKQTSLDAVAQAVVDRVKRIHSDTFASGGERARFCPRHEDMTLLVRNFGYPLGEMSQPTPSPAPAAGGRVYPVSVPYSSAQSTSKTSVTLSLVMPSQGQMVNGAHSASTLDEATPTLTNQSPTLTLQSTNTHTQSSSSSSDGGLFRSRPAHSLPPGEDGRVEPYVDFAEFYRLWSVDHGEQSVVTAP

binding [1]: no binding
B2: Flag-tagged TAB1 (protein, UniProt Q15750 1-504)
chain: B1 chain

binding [3]: binds
B3: Myc-tagged TAB2 (protein, UniProt Q9NYJ8 1-693)
chain: T2 sequence

binding [3]: binds
B4: Myc-tagged TAB2-K656R (protein, UniProt Q9NYJ8 1-693)
chain: T2 sequence with K656R

binding [2]: binds
B5: TAK1 in HEK293T cells (Fig. 3d, e; construct not stated) (enzyme, UniProt O43318 1-606)
chain: T3 sequence

binding [1]: no binding
B6: Flag-tagged IKKβ (enzyme, UniProt O14920 1-756)
chain: MSWSPSLTTQTCGAWEMKERLGTGGFGNVIRWHNQETGEQIAIKQCRQELSPRNRERWCLEIQIMRRLTHPNVVAARDVPEGMQNLAPNDLPLLAMEYCQGGDLRKYLNQFENCCGLREGAILTLLSDIASALRYLHENRIIHRDLKPENIVLQQGEQRLIHKIIDLGYAKELDQGSLCTSFVGTLQYLAPELLEQQKYTVTVDYWSFGTLAFECITGFRPFLPNWQPVQWHSKVRQKSEVDIVVSEDLNGTVKFSSSLPYPNNLNSVLAERLEKWLQLMLMWHPRQRGTDPTYGPNGCFKALDDILNLKLVHILNMVTGTIHTYPVTEDESLQSLKARIQQDTGIPEEDQELLQEAGLALIPDKPATQCISDGKLNEGHTLDMDLVFLFDNSKITYETQISPRPQPESVSCILQEPKRNLAFFQLRKVWGQVWHSIQTLKEDCNRLQQGQRAAMMNLLRNNSCLSKMKNSMASMSQQLKAKLDFFKTSIQIDLEKYSEQTEFGITSDKLLLAWREMEQAVELCGRENEVKLLVERMMALQTDIVDLQRSPMGRKQGGTLDDLEEQARELYRRLREKPRDQRTEGDSQEMVRLLLQAIQSFEKKVRVIYTQLSKTVVCKQKALELLPKVEEVVSLMNEDEKTVVRLQEKRQKELWNLLKIACSKVRGPVSGSPDSMNASRLSQPGQLMSQPSTASNSLPEPAKKSEELVAEAHNLCTLLENAIQDTVREQDQSFTALDWSWLQTEEEEHSCLEQAS
